Assays:
RT112 cells = assay: Bladder cancer CDX model; assay type: in vivo, BALB/c nude mice
Procedure: (§1) 8.1) RT112 cells in exponential growth stage were collected and counted for tumor inoculation. 0.2 mL of matrix gel buffer (PBS:Matrigel=1:1) was used to subcutaneously inject 10×10^6 cells into the right flank of SPF female BALB/c nude mice aged 6-8 weeks.
(§2) The tumor diameter was measured with a caliper and the tumor volume was calculated according to the formula V=0.5 a×b^2 (wherein a is the long diameter of the tumor and b is the short diameter of the tumor). When the mean tumor volume was about 100-300 mm^3, the mice were randomized into vehicle group, ADC19 5 mg/kg group and ADC20 5 mg/kg group. The day of first administration is defined as day 0. Mice in the vehicle group were given the solvent of ADC drugs with the same frequency and administration route. The tumor volume of mice in each group was measured twice a week. The experiment was end on day 27, and the tumor growth inhibition rate (TGI) was calculated as follows: TGI (%)=[1−(the mean tumor volume of the treatment group on the end day−the mean tumor volume of the treatment group on the first day)/(the mean tumor volume of the vehicle group on the end day−the mean tumor volume of the vehicle group on the first day)]×100%.
8.2) For evaluation the dose-dependent antitumor efficacy in bladder cancers, the RT112 cells bearing BALB/c nude mice were randomized grouped and treated by solvent; ADC20 8 mg/kg single dose and ADC20 8 mg/kg, QW, 2 times. The experiment was end on day 33, and the tumor growth inhibition rate (TGI) was calculated as follows: TGI (%)=[1−(the mean tumor volume of the treatment group on the end day−the mean tumor volume of the treatment group on the first day)/(the mean tumor volume of the vehicle group on the end day−the mean tumor volume of the vehicle group on the first day)]×100%. The ADC groups continued to be observed until day 84.

UM-UC1 cells = assay: Bladder cancer CDX model; assay type: in vivo, Balb/c nude mice; conditions: 8 mg/kg, QW, 2 times, day 17
Procedure: 8.4) UM-UC1 cells in exponential growth stage were collected and counted for tumor inoculation. 0.1 mL of matrix gel buffer (PBS:Matrigel=1:1) was used to subcutaneously inject 10×10^5 cells into the right flank of SPF female Balb/c nude mice aged 6-8 weeks.
as §2, with “V=0.5 a×b^2.” for “V=0.5 a×b^2 (wherein a is the long diameter of the tumor and b is the short diameter of the tumor).”, “vehicle” for “vehicle group, ADC19 5 mg/kg”, “ADC20 8” for “ADC20 5”, “day 17,” for “day 27,”

KMS11 cells = assay: Multiple myeloma CDX model; assay type: in vivo, CB17.SCID mice; conditions: 5 mg/kg, QW, 2 times, day 32
Procedure: as §1, with “To evaluate the in vivo anti-tumor efficacy of ADC19 and ADC20 in mice bearing multiple myeloma FGFR3 overexpressed CDX model, KMS11” for “8.1) RT112”, “CB17.SCID” for “BALB/c nude”
as §2, with “a×b^2.” for “a×b^2 (wherein a is the long diameter of the tumor and b is the short diameter of the tumor).”, “32,” for “27,”

[1] = system: AMB-BT-0112T cells with FGFR3-TACC3 fusion; assay: Subcutaneous glioblastoma PDX model; assay type: in vivo, BALB/c nude mice; conditions: AMB-BT-0112T PDX, 8 mg/kg, QW, 2 times, day 33
Procedure: 2) AMB-BT-0112T cells with FGFR3-TACC3 fusion (GBM, patients-derived cells) in exponential growth stage were collected and counted for tumor inoculation. 0.1 mL of matrix gel buffer (PBS:Matrigel=1:1) was used to subcutaneously inject 1×10^6 cells into the right flank of SPF female BALB/c nude mice aged 6-8 weeks.
The tumor diameter was measured with a caliper and the tumor volume was calculated according to the formula V=0.5 a×b^2 (wherein a is the long diameter of the tumor and b is the short diameter of the tumor). When the mean tumor volume was about 100-300 mm^3, the mice were randomized into vehicle group, and ADC20 8 mg/kg group. The day of first administration is defined as day 0. Mice in the vehicle group were given the solvent of ADC drugs with the same frequency and administration route. The tumor volume of mice in each group was measured twice a week.

[2] = system: Multiple myeloma cells KMS-11; assay: Internalization activity of ADC by flow cytometry; assay type: cell-based; conditions: 1 nM, 37° C., 0 min to 4h, FIG. 10
Procedure: Multiple myeloma cells KMS-11 (JCRB, JCRB1178) in good viability, were treated with accutase, collected, suspended in serum-free RPMI medium. 1.0×10^5 cells were dyed with 1000 times diluted LIVE/DEAD™ Fixable Near-IR Dead Cell Stain dye for 30 min at RT in dark. And washed twice by cold FACS buffer to remove the excess dye and cells were incubated with tested drugs solution with the final concentration of 1 nM for 30 min on ice. After the surface binding, the antibody-cell mixture was washed by cold FACS buffer and serum-free RPMI medium to remove the excess antibody. Then antibody-bound cells were incubated at 37° C. CO2 incubator for 0 min, 10 min, 30 min, 1 h, 2 h and 4h, respectively, for antibody internalization. After incubation the antibody bonded cells were washed with Flow Cytometry Staining Buffer and fluorescence labeled by ice cold goat anti-human-IgG-IgG cross-adsorbed secondary antibody conjugated with Alexa Fluor 488 (Invitrogen, A-11013, Carlsbad, CA, USA) diluted 1:300 in staining buffer at 4° C. for 30 min. After the fluorescence labelling, the antibody-cell mixture was washed twice again and analyzed by flow cytometry.
The MFI data was normalized to MFI at 0 min, which was defined as 100%. The result was analyzed by GraphPad Prism 9.

[3] = 8 mg/kg, QW, 2 times (repeat), day 33

B1: ADC20: ADC formed by ligase site-specific conjugation of Linker-Payload 2 to anti-FGFR3 antibody A9Q (conjugate)
heavy: EVQLLESGGGLVQPGGSLRLSCAASGFTFSSYDMSWVRQAPGKGLEWVSGIYSGDGSIYYADSVKGRFTISRDNSKNTLYLQMNSLRAEDTAVYYCAKDGPMNEESRFDYWGQGTLVTVSS[human IgG1 constant region not written out]
light: QSVLTQPPSASGTPGQRVTISCSGSSSNIGNNYVSWYQQLPGTAPKLLIYADSKRPSGVPDRFSGSKSGTSASLAISGLRSEDEADYYCASWDYSLSGYVFGGGTKLTVLGQPKAAPSVTLFPPSSEELQANKATLVCLISDFYPGAVTVAWKADSSPVKAGVETTTPSKQSNNKYAASSYLSLTPEQWKSHRSYSCQVTHEGSTVEKTVAPTECGALPETGG
For B1, the TGI (RT112 cells; 5 mg/kg, QW, 2 times, day 27) was 107.08%, the Tumor volume (RT112 cells; 5 mg/kg, QW, 2 times, day 27, Mean ± SEM) was 32 ± 7 mm^3 and the TGI (RT112 cells; [3]) was 107.65%. For the same molecule, the Tumor volume (RT112 cells; [3]) was 16 ± 16 mm^3, the “completed response (CR)” value (RT112 cells; 8 mg/kg, QW, 2 times (repeated dose), observed until day 84) was “caused CR” and the TGI (RT112 cells; 8 mg/kg, single dose, day 33) was 106.34%. It also gave a Tumor volume (RT112 cells; 8 mg/kg, single dose, day 33) of 36 ± 45 mm^3, a TGI (UM-UC1 cells) of 82.71% and a Tumor volume (UM-UC1 cells) of 402 ± 104 mm^3. The TGI (KMS11 cells) was 108.31%, the Tumor volume (KMS11 cells) was 11 ± 1 mm^3 and the TGI [1] was 95.08%. The Tumor volume [1] was 216 ± 52 mm^3 and the internalization activity [2] was “comparable internalization activity with A9Q”.
